Experimental data taken from PubChem BioAssay AID588342 (National Center for Advancing Translational Sciences (NCATS), 2011).
Screen size: about 360,000 compounds; about 25,000 (6.9%) were called active. The shares of active, inactive and inconclusive entries below differ from those in the screen. The call rests on the fitted dose curve; in most records, active means well fitted inhibition curve with a large enough effect; inconclusive means small, poorly fitted or top-dose-only effect; inactive means flat fitted curve, though single readings scatter. Potencies of inconclusive entries are doubtful fits and often do not repeat.

biological target: Luciferin 4-monooxygenase (Photinus pyralis) (UniProt P08659); assay: qHTS profiling assay for firefly luciferase inhibitor/activator using purifed enzyme and Km concentrations of substrates (counterscreen for miR-21 project); conditions: purified FLuc, luminescence inhibition; series mostly up to 57.5 µM; further: nearly all actives have a fitted effect of over 55% in size
How it was run: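 Biochemical qHTS of compounds, final roughly 60 µM downward over six points, against 10 nM purified firefly luciferase using Km concentrations of substrates (10 uM D-luciferin, 10 uM ATP) in Tris acetate pH 7.5 buffer; luminescence output.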
Potency means the concentration at half of the fitted maximal effect; tags describe the fitted curve by direction and shape.

UniProt P08659, sequence (P08659 whole entry, looked up): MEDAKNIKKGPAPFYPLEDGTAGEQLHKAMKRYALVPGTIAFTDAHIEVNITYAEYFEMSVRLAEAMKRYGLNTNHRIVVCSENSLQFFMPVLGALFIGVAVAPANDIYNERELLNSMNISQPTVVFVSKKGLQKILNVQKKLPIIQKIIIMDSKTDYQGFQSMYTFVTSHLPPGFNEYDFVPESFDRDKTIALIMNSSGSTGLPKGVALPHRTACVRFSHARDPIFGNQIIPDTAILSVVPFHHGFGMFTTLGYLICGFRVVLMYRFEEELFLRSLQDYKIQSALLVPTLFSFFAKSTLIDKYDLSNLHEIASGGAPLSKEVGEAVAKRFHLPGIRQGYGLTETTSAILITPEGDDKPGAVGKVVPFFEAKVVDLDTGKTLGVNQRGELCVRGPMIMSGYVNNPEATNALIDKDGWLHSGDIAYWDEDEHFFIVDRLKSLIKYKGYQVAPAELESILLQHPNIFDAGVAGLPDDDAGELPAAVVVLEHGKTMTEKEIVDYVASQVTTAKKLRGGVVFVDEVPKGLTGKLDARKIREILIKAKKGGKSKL

Row | SMILES | Potency
1 | COc1ccc(NCC(=O)N/N=C/C=C\c2ccccc2)cc1 | inconclusive: 16.9 µM [inhibitor, single point]
2 | Cc1ccc(C)c(OCCCC(=O)Nc2ccccc2C(N)=O)c1 | inconclusive: 37.9 µM [inhibitor, single point]
3 | COC(=O)c1ccc2c(=O)n(CC3CCCO3)c(SCC(=O)Nc3ccccc3Cl)nc2c1 (stereo not given) | inconclusive: 3.38 µM [inhibitor, partial curve, poor fit]
4 | COc1ccc(C(=O)OCC(=O)c2ccc(C3CCCCC3)cc2)cc1 | inactive
5 | O=C(CCCCCn1c(=S)[nH]c2cc3c(cc2c1=O)OCO3)N1CCN(c2ccccc2)CC1 | inactive
6 | O=C(Cn1ccc([N+](=O)[O-])n1)Nc1nc2ccccc2s1 | inconclusive: 23.9 µM [inhibitor, partial curve, poor fit]
7 | O=C(Nc1ccccc1)O/N=C/c1ccc(F)cc1 | active: 2.39 µM
8 | COc1cc(/C=N/NC(=O)NC2CCCCC2)ccc1O | inconclusive: 23.9 µM [inhibitor, single point]
9 | O=C(Nc1ccc(-c2nc3ccccc3[nH]2)cc1)c1ccco1 | active: 4.26 µM
10 | COc1ccc(C(=O)Nc2nc(CC(=O)NCCc3cccc(OC)c3)cs2)cc1 | active: 13.5 µM
11 | Nc1nonc1C(=O)N/N=C/c1ccc(-c2ccc(Cl)c(C(=O)O)c2)o1 | inconclusive: 23.9 µM [inhibitor, partial curve]
12 | Cc1ccc(S(=O)(=O)NCC(=O)N(CC(=O)NCC2CCCO2)Cc2ccccc2)cc1 (stereo not given) | inactive
13 | Cc1cc(NS(=O)(=O)c2ccc(Nc3nc(-c4ccc(O)cc4)cs3)cc2)no1 | active: 23.9 µM
14 | C[C@H](NC(N)=O)C(=O)Nc1ccc(N2CCOCC2)c(S(=O)(=O)Nc2ccc(Cl)cc2)c1 | inconclusive: 23.9 µM [inhibitor, partial curve, poor fit]
15 | CCOC(=O)c1cc(S(=O)(=O)Nc2ccccc2OCC)[nH]n1 | inactive
16 | CCCc1cc(=O)[nH]c(SCc2nc(-c3ccccc3F)no2)n1 | inconclusive: 21.3 µM [inhibitor, partial curve]
17 | O=C(CCN1C(=O)C2C3C=CC(C3)C2C1=O)Oc1ccc2ccccc2c1 (stereo not given) | inconclusive: 37.9 µM [inhibitor, partial curve, poor fit]
18 | Cc1[nH]n(-c2ccccc2)c(=O)c1N=Nc1ccc(C(=O)O)cc1 | active: 7.57 µM
19 | O=C(O)CCc1nnc(SCC(=O)Nc2ccc(Cl)c(C(F)(F)F)c2)[nH]c1=O | inconclusive: 23.9 µM [inhibitor, single point]
20 | CC(C)(C)NC(=O)CSc1nnc(-c2c[nH]c3ccccc23)o1 | inconclusive: 21.3 µM [inhibitor, single point]
21 | CCCNC(=O)c1c(N)n(-c2cc(OC)cc(OC)c2)c2nc3ccccc3nc12 | inactive
22 | CNC(=O)Nc1ccc(C2SCCS2)cc1 | active: 16.9 µM
23 | C/C(Cc1ccccc1)=N\NC(=O)CNC(=O)c1ccccc1Cl | inconclusive: 23.9 µM [inhibitor, single point]

Row | SMILES | Potency
24 | CCCC(=O)N=c1sc2cccc(F)c2n1C | inconclusive: 16.9 µM [inhibitor, partial curve]
25 | Brc1ccc(-c2nnc(-c3ccccc3)c(N3CCSCC3)n2)cc1 | inconclusive: 16.9 µM [inhibitor, partial curve, poor fit]
26 | Cc1ccc(NC(=O)c2ccc(S(=O)(=O)N3CCCCCC3)cc2)nc1 | inconclusive: 26.9 µM [inhibitor, partial curve, poor fit]
27 | CN(C)CCNC(=O)c1ccc(Cn2c(=O)c3cccn3c3cccnc32)cc1 | inactive
28 | CCCc1ccc(C(=O)COC(=O)CN2C(=O)NC3(CCCCC3C)C2=O)cc1 (stereo not given) | active: 26.9 µM
29 | Cc1[nH]c2ccccc2c1C(=O)C(=O)N1CCN(C(=O)c2ccco2)CC1 | inactive
30 | CC(/C=N/Nc1ccc2nncn2n1)=C\c1ccccc1 | active: 15.1 µM
31 | COc1cc(-c2noc(-c3ccc(NCCc4ccccc4)c([N+](=O)[O-])c3)n2)cc(OC)c1OC | inconclusive: 15.1 µM [inhibitor, partial curve]
32 | CCOC(=O)C1=NN(c2ccc(Cl)cc2)C(=O)C1 | active: 9.53 µM
33 | N#CC(C#N)=c1ccc2c(c1)NC1(CCCCC1)N=2 | inconclusive: 21.3 µM [inhibitor, partial curve, poor fit]
34 | COc1cc(NC(=O)CCNS(=O)(=O)c2ccc3c(c2)CCN3C(=O)C2CC2)cc(OC)c1 | inactive
35 | COc1cc2c(cc1NC(=O)c1cccc(F)c1)CCCC2 | inconclusive: 30.1 µM [inhibitor, partial curve]
36 | C(=N\N1CCN(Cc2cccc3ccccc23)CC1)/c1ccco1 | inconclusive: 21.3 µM [inhibitor, partial curve, poor fit]
37 | CCN(CCO)c1ccc(N=Nc2cc(C)[nH]n2)cc1 | active: 0.269 µM
38 | Cc1cccc(NC(=O)c2ccc(OCC3CCCO3)cc2)c1C (stereo not given) | inconclusive: 33.8 µM [inhibitor, partial curve, poor fit]
39 | COc1ccc(Cl)cc1NC(=O)C1CC(c2c(F)cccc2Cl)=NO1 (stereo not given) | inactive
40 | O=C(C1CC1)N1CCc2cc(S(=O)(=O)N3CCCc4ccccc43)ccc21 | inconclusive: 26.9 µM [inhibitor, single point]
41 | CCOC(=O)CN1C(=O)C(C)(C)Oc2ccc(C(=O)Nc3ccccc3)cc21 | inconclusive: 30.1 µM [inhibitor, partial curve, poor fit]
42 | Cc1[nH][nH]c(=O)c1C(c1ccc(-c2ccc(Cl)cc2)o1)c1c(C)[nH][nH]c1=O | inconclusive: 37.9 µM [inhibitor, partial curve, poor fit]
43 | Cc1cccc(NC(=O)c2ccc(-c3ccccc3[N+](=O)[O-])o2)c1 | inconclusive: 16.9 µM [inhibitor, partial curve]
44 | CC(=O)NN1C(=O)/C(=C\c2ccc(Br)o2)SC1=S | inconclusive: 37.9 µM [inhibitor, single point]
45 | COc1ccc(N2CCN(C(c3ccccc3)c3nnc(-c4ccccc4Cl)o3)CC2)cc1 (stereo not given) | inconclusive: 16.9 µM [inhibitor, partial curve]
